The source of these data is PubChem BioAssay AID493208 (National Center for Advancing Translational Sciences (NCATS), 2011).

Each structure is given as a SMILES string. Screen size: about 44,000 compounds; about 340 (0.77%) were called active. Roughly 5% stayed inconclusive and do not appear here. The call rests on the fitted dose curve; in most records, active means well fitted inhibition curve with a large enough effect; inconclusive means small, poorly fitted or top-dose-only effect; inactive means flat fitted curve, though single readings scatter. The list shows a part of the results.
Potency means the concentration at half of the fitted maximal effect.

The nature of this test: Acumen qHTS Assay for Inhibitors of the mTORC1 Signaling Pathway in MEF (Tsc2-/-, p53-/-) Cells: Sytravon. Further: nearly all actives have a fitted effect of over 50% in size.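 On activity change, negative = inhibition: plate controls were DMSO for no effect and rapamycin for full effect.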 The note with it: phospho-rpS6 immunofluorescence/PI, 24 h; series mostly up to 38.3 µM; activity change, negative = inhibition: at the top concentration. The gist of the method:
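Readout is phospho-S6 Alexa 488 signal normalized to PI per well, reported as % active cells with thresholds set from rapamycin (7.5 nM) and DMSO controls. Cells: Tsc2-/-, p53-/- MEFs, 24 hrs compound at 37 C; PI cell number serves as viability.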
As to `CCCCN(C)C(=O)c1ccc2c(=O)n3nc(Nc4cc(C)ccc4C)sc3nc2c1`, the “activity change, negative = inhibition” value is inactive: -1.89%.

For the compound `Cc1cc(C)cc(NC(=O)COc2cccc3c(=O)n(C)ccc23)c1`, the “activity change, negative = inhibition” value is inactive: -0.0434%.

Take `COc1ccc(CCNC(=O)c2ccc(-n3c(C)cc4c3CCC(C)C4)cc2)cc1OC` (stereo unspecified): the “activity change, negative = inhibition” value is inactive: -17.2%.

Regarding `O=C(NCc1ccc2c(c1)OCO2)c1ccc2c(c1)N(Cc1c(F)cccc1Cl)C(=O)c1ccccc1S2`, the “activity change, negative = inhibition” value is inactive: 5.34%.

Turning to `Cc1cc(C)c(OCC(=O)N(Cc2ccc(N(C)C)cc2)Cc2ccco2)c(C)c1`, the “activity change, negative = inhibition” value is inactive: -21.9%.

On to `CCOc1ccc(NS(=O)(=O)c2ccc3c(c2)NC(=O)CCS3)cc1`, for which the “activity change, negative = inhibition” value was inactive: -10.8%.

As to `COC(=O)c1ccccc1NC(=O)Cn1c(=O)n(CCC(=O)NCc2ccc3c(c2)OCO3)c(=O)c2ccccc21`, the “activity change, negative = inhibition” value is inactive: 3.5%.

For `COc1ccc(C(=O)c2cn(CC(=O)Nc3cc(OC)cc(OC)c3)c3ccc(OC)cc3c2=O)cc1`, the “activity change, negative = inhibition” value was inactive: -14.5%.

In the case of `Cc1ccc(-c2cn3nc(N4CCCC(C(=O)NCc5ccccc5F)C4)sc3n2)cc1` (stereo unspecified), the “activity change, negative = inhibition” value was inactive: -2.3%.

`CC1=C(C(=O)OC2CCCC2)C(c2c(F)cccc2Cl)CC(=O)N1` (stereo unspecified): the “activity change, negative = inhibition” value is inactive: -2.3%.

As for `Cc1ccc(Cn2nc3n(c2=O)-c2cc(Cl)ccc2OC3)cc1`, the “activity change, negative = inhibition” value is inactive: -3.51%.

With `COc1ccc(-n2c(-c3cccc(F)c3)nc3c(cnn3-c3ccc(C)cc3)c2=O)cc1`, the “activity change, negative = inhibition” value is inactive: -6.1%.

`Cc1ccc(-c2csc(-c3c(N)c(C(=O)c4ccc5c(c4)OCO5)n4ccccc34)n2)cc1`: the “activity change, negative = inhibition” value is inactive: -0.279%.

Take `CCOC(=O)c1c(S(=O)(=O)N2CCC(C(=O)NCc3cccc(OC)c3)CC2)c(C)n(C)c1C`: the “activity change, negative = inhibition” value was inactive: 0.0466%.

Turning to `Cc1cccc(N(C)C(=O)Cn2c(=O)oc3cc(S(=O)(=O)N4CCCCC4)ccc32)c1`, the “activity change, negative = inhibition” value is inactive: 5.35%.

For `COc1ccc(-c2nc3ccccc3o2)cc1NC(=O)Cc1ccc(Cl)cc1`, the “activity change, negative = inhibition” value was inactive: 2.44%.

As to `COc1cccc(N2C(=O)C(CC(=O)Nc3cccc(F)c3)N(C3CCCC3)C2=O)c1` (stereo unspecified), the “activity change, negative = inhibition” value was inactive: -3.31%.

As for `Cn1ccnc1SCC(=O)Nc1cccc(Br)c1`, the “activity change, negative = inhibition” value is inactive: 2.96%.

Regarding `COC(=O)c1ccc(NC(=O)Cn2c(=O)oc3ccccc32)cc1`, the “activity change, negative = inhibition” value is inactive: 4.38%.

As for `Cc1nc2ccn(Cc3ccco3)c(=O)c2cc1C(=O)NCc1ccc(Cl)cc1`, the “activity change, negative = inhibition” value was inactive: -14.8%.

Turning to `NC(=O)c1cc(S(=O)(=O)NCc2cccc(Br)c2)cs1`, the “activity change, negative = inhibition” value was inactive: 2.02%.

In the case of `Cc1ccc(CNC(=O)c2ccc3c(c2)CCN3S(=O)(=O)c2ccc(Br)cc2)cc1`, the “activity change, negative = inhibition” value was inactive: -9.23%.

Take `COc1ccc(C2CC(=O)c3cc(-c4nc(-c5cccc([N+](=O)[O-])c5)cs4)c(=O)n(-c4ccccc4N)c3C2)cc1` (stereo unspecified): the “activity change, negative = inhibition” value was inactive: -10.7%.

As for `COc1ccc(N2CC(NC(=O)C3CCCCC3)CC2=O)cc1` (stereo unspecified), the “activity change, negative = inhibition” value was inactive: 0.0318%.

Consider `CCn1c(SCC(=O)Nc2cc(C)ccc2F)nnc1-c1ccccc1O`, for which the “activity change, negative = inhibition” value is inactive: -3.53%.

In the case of `CCN(c1ccc(OC)cc1)S(=O)(=O)c1ccc2[nH]c3c(c2c1)CCCCC3`, the “activity change, negative = inhibition” value is inactive: -10.9%.

For the compound `CCOC(=O)CNC(=O)N1CCN(S(=O)(=O)c2ccc3c(ccn3C)c2)CC1`, the “activity change, negative = inhibition” value was inactive: -0.543%.

As for `COc1ccc(CC(=O)N2CC(=O)Nc3ccc(F)cc3C2c2ccccc2)cc1` (stereo unspecified), the “activity change, negative = inhibition” value was inactive: 18.1%.

On to `CC(=O)c1ccc(NC(=O)C2CCN(S(=O)(=O)c3ccc4[nH]c5c(c4c3)CCCCC5)CC2)cc1`, for which the “activity change, negative = inhibition” value is inactive: 1.19%.

As to `Cc1ccccc1CNC(=O)Cn1c(=O)c2cccn2c2cccnc21`, the “activity change, negative = inhibition” value was inactive: 2.91%.

For `COc1ccccc1CNC(=O)c1ccc(N2CCCC2)c(NC(=O)NCc2ccc(C)cc2)c1`, the “activity change, negative = inhibition” value was inactive: 13.5%.

Take `CCCOc1ccc(C2c3c(oc4ccccc4c3=O)C(=O)N2c2nnc(C(C)C)s2)cc1` (stereo unspecified): the “activity change, negative = inhibition” value was inactive: -0.0854%.

In the case of `COc1ccc(C2=NC(c3ccccc3)=Nc3ccc(C)cc3N2)cc1`, the “activity change, negative = inhibition” value was inactive: -3.47%.

Take `CCc1ccc(CNC(=O)C2CCN(c3nn4cc(-c5ccc(OC)cc5)nc4s3)CC2)cc1`: the “activity change, negative = inhibition” value is inactive: 0%.

For `COC(=O)c1ccccc1NC(=O)c1ccc(CN2CC(=O)N3CCCCC3C2=O)cc1` (stereo unspecified), the “activity change, negative = inhibition” value was inactive: -6.31%.

Regarding `COc1ccccc1N1CCN(CC(O)COc2ccc(Cl)c(C)c2)CC1` (stereo unspecified), the “activity change, negative = inhibition” value was inactive: -10.5%.

In the case of `COc1ccc(NC(=O)CSc2nnc(-c3ccncc3)n2-c2ccccc2)cc1`, the “activity change, negative = inhibition” value is inactive: 0.878%.

On to `CN1CCN(C(=O)c2ccc3c(c2)N(Cc2ccc(F)cc2)C(=O)c2ccccc2S3(=O)=O)CC1`, for which the “activity change, negative = inhibition” value is inactive: -5.7%.

As to `CCC(C)NC(=O)c1c2c(nc3ccccc13)C(=O)N(C1CCCCC1)C2` (stereo unspecified), the “activity change, negative = inhibition” value was inactive: -6.67%.

For the compound `O=C(CSc1n[nH]c(-c2ccc(F)cc2)n1)N1CCN(c2ccc(F)cc2)CC1`, the “activity change, negative = inhibition” value was inactive: 0%.

Regarding `CCOC(=O)c1cc(S(=O)(=O)Nc2ccccc2)[nH]n1`, the “activity change, negative = inhibition” value was inactive: 0.72%.

On to `CCOC(=O)N[C@H](Cc1c[nH]c2ccccc12)C(=O)Nc1cccc(Cl)c1`, for which the “activity change, negative = inhibition” value was inactive: 2.41%.

For `COc1ccc(OC)c(NC(=O)c2nc(S(=O)(=O)Cc3ccc(F)cc3)ncc2Cl)c1`, the Potency was active: 2.93 µM.

On to `CCc1ccc(C2CC(=O)Nc3c2c(=O)n(C)c2ncnn32)cc1` (stereo unspecified), for which the “activity change, negative = inhibition” value is inactive: 4.36%.

In the case of `CC(C)Oc1ccc(CNC(=O)C2=Cc3ccccc3OC2)cc1`, the “activity change, negative = inhibition” value was inactive: 3.47%.

With `COc1ccc(C(=O)c2cn(CC(=O)Nc3cc(C)ccc3C)c3nc(C)ccc3c2=O)cc1`, the “activity change, negative = inhibition” value was inactive: 2.41%.

As to `CCOCCCN(Cc1ccco1)C(=O)c1cc2c(s1)-c1c(C)cccc1OC2`, the “activity change, negative = inhibition” value was inactive: -5.18%.

Regarding `NC(=O)C1CCN(c2csc3ccc(F)cc3c2=O)CC1`, the “activity change, negative = inhibition” value is inactive: -0.48%.

Take `CCn1c(CN2CCN(C)CC2)nc2cc(NC(=O)c3ccc([N+](=O)[O-])cc3)ccc21`: the “activity change, negative = inhibition” value is inactive: -7.76%.

In the case of `COc1ccc(N2CCN(C(CNC(=O)c3ccc(OC)c(OC)c3)c3cccnc3)CC2)cc1` (stereo unspecified), the “activity change, negative = inhibition” value is inactive: 3.5%.

Turning to `Cc1ccc(NC(=O)CN(Cc2ccccc2)S(=O)(=O)c2ccc3nc(C)sc3c2)c(C)c1`, the “activity change, negative = inhibition” value was inactive: 2.58%.

Take `Cc1ccc(-c2nc(CSc3nnc(C)n4c3cc3occc34)c(C)o2)cc1`: the “activity change, negative = inhibition” value is inactive: -2.99%.

Turning to `Cc1cccc2nc(-c3ccccn3)c(Nc3ccccc3)n12`, the “activity change, negative = inhibition” value was inactive: -10.5%.

For the compound `CCCCOC(=O)c1ccc(-n2nnc3c(sc4nc(C)cc(C)c43)c2=O)cc1`, the “activity change, negative = inhibition” value is inactive: 0.404%.

For the compound `COc1ccc(CNC(=O)c2c(O)nc3c(C)cccn3c2=O)cc1`, the “activity change, negative = inhibition” value is inactive: -6.32%.

In the case of `CN(C)c1ccc(CNC(=O)CCCN2C(=O)c3cccnc3Oc3ccc(Cl)cc32)cc1`, the “activity change, negative = inhibition” value is inactive: -13.4%.

For the compound `CC(C)Cn1cc(NC(=O)N2CCN(c3cccc(C(F)(F)F)c3)CC2)c2ccccc2c1=O`, the “activity change, negative = inhibition” value was inactive: 6.98%.

With `Cc1cc(N2CCC(C)CC2)nc2ccc(NC(=O)Cc3ccccc3Br)cc12`, the “activity change, negative = inhibition” value is inactive: 0%.

On to `O=S(=O)(NCCc1nnc2ccc(SCc3ccccc3Cl)nn12)c1ccccc1`, for which the “activity change, negative = inhibition” value is inactive: 3.36%.

As to `CCOc1ccc(-c2nc(-c3ccccc3)c(-c3ccccc3)[nH]2)cc1OCC`, the “activity change, negative = inhibition” value is inactive: 1.34%.

Turning to `COc1cc2nc(Nc3cccc(F)c3)nc(N)c2cc1OC`, the “activity change, negative = inhibition” value was inactive: -27.5%.
